Data taken from the supplement of paper PMC11417369.
This is one part of the list.

test system: PfAP2-HC AP2 domain (GST-tagged); test: gcPBM binding intensity (ln(normalized median fluorescence intensity)); higher = stronger DNA binding
Outline: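 GST-tagged P. falciparum DNA-binding domains, expressed in E. coli (about 25 μg on average), were applied for 1 h to an Agilent 4 × 180k array of primer-extended double-stranded 36-bp intergenic genomic probes plus negative controls. The binding buffer was 1× PBS with 1% milk, 0.2 mg/ml BSA, 0.5% salmon testes DNA and 0.03% Triton X-100. Bound protein was detected with Alexa488 anti-GST antibody and scanned at 488 nm. Binding intensity is the highest Masliner-normalised natural-log median intensity across replicate spots of either probe orientation.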

Row | Sequence | gcPBM binding intensity (ln)
1 | AAAAGAAAAAGAAAAACACACATAAATATAAATATA [CACACA_site1879] | 10.2
2 | TATATTTTACTCTTCACACATATACTCAATTTATAT [CACACA_site5357] | 9.85
3 | CATATTTGGAAACACACACACATATTTATATATATA [CACACA_site3569] | 10.6
4 | AAATTCAGGTTATATTTTAATTTTTTTTTGTTTTTT [CACACA_negctrl_site924] | 9.55
5 | CATACACATACACATACACACGCATAGAAACATACG [CACACA_site8666] | 10.4
6 | AATTTTTCATCAAGTTGTACAATTATTTGTTTGTTT [XGTACX_site3113] | 10
7 | CAATATTTTTTATAGGGTACAAAAGATAAAAAAAAA [XGTACX_site6298] | 9.68
8 | AAAACAATAATATACTGTACATATATATAATAACAT [XGTACX_site6188] | 9.9
9 | GTACATACATAAAACACACACATATATATATATATA [CACACA_site1826] | 10
10 | TAATTAAAAAATAAAAAAAAAAAAAATTAAAACAAA [CACACA_negctrl_site500] | 9.46
11 | TGCTAATAATTATTTGTTTAGCAACAAAAAAAAAAA [CACACA_negctrl_site1541] | 9.2
12 | TTCTTTTTAATTTATTTTTTCTTATAACAAGAAAAC [CACACA_negctrl_site201] | 9.61
13 | TCACATATGTTCCATTGTACTTGTAGTAATTTTTTC [XGTACX_site6473] | 9.81
14 | GTAATATGTATCCATACACACATACATTTTATTTGC [CACACA_site4640] | 9.98
15 | ATAAAATGAAATATATGTACGCATCACTTGTTGAAC [XGTACX_site4530] | 9.72
16 | TTCTTTTCTTTTTTCTTTTTTTTTTTCTTTTCTTTT [GTGCAC_negctrl_site630] | 9.6
17 | AAAAAAAAAAAAAAAACATGCAAAATAATATATATA [TGCATGCA_site68] | 9.52
18 | AGAAAAGGACATATATGTACTTATCAATATAGAAAC [XGTACX_site1042] | 9.88
19 | ATTTATTTTTTACATTGTACATATTTATTCCTTTTA [XGTACX_site8028] | 9.95
20 | TTATTTTCAAAATGTTGTACACACAAAAAAAAAAAA [XGTACX_site3151] | 9.67
21 | TTTTTTTTTTTTTTTGCATGCAGGTTTTTACCCCTT [TGCATGCA_site381] | 9.53
22 | TTTTTTTTCTTCAAGCGTACTTATTTGTAGAAAAAA [XGTACX_site1728] | 9.27

Row | Sequence | gcPBM binding intensity (ln)
23 | ATATGTGGAAATAGAGCACACATATATATAATATAT [CACACA_site8194] | 10.1
24 | TATGTATATATATAAAGTACGCAAATTTATAATAAG [XGTACX_site8744] | 9.74
25 | TTTTGTTTTAAAAGTACACACTTTTAATTAGATTTC [CACACA_site4788] | 9.62
26 | AAAATACACAACATATATATATATATATATATATAT [XGTACX_negctrl_site21] | 9.62
27 | TGATCAATGGATTTAACACACAAAAAAAAAAAAAAA [CACACA_site3845] | 9.36
28 | TACATGAATAAACTTACACACACCCATGCATACATA [CACACA_site97] | 10.4
29 | TGAAAAGGAAAATTTTGTACATATACATCAAGGATA [XGTACX_site656] | 9.45
30 | ACTTTTTATTTTTTACTATATATATATATATATATG [TGCATGCA_negctrl_site463] | 10.1
31 | AAAAAAAAGAATTTACGTACTTATTATTTATATTTT [XGTACX_site5701] | 9.67
32 | ACTAACATATATTCAACACACATATACCTTCAACCC [CACACA_site3011] | 10.2
33 | TATATATATATATACACACACACATATATATATATA [CACACA_site774] | 9.96
34 | CCCATTTAATATTGAGTGCATTTAAATAAATGTATT | 9.53
35 | TTTTACAAAGTATGATGTACAAGTATATATAAATAT [XGTACX_site2072] | 9.57
36 | TCCCTTAAAATGATATGTACATAAAAATAAAAAAAA [XGTACX_site836] | 9.43
37 | AACATAAGTAAGAATACATGCGGAAATTATATAGAA [TGCATGCA_site112] | 9.81
38 | TATAAATTTAAAATGACACACACTAAAGTTATTTAA [CACACA_site6700] | 9.86
39 | TAAATATTATAAATGATACACACTTAAAATACTCAC [CACACA_site2710] | 9.83
40 | TTAAAAGAAAATAACACACACAAAAAAAAAAAAAAA [CACACA_site2117] | 9.79
41 | TATATATTTGTTCACACACACACAAAAAAAAAAAAA [CACACA_site2475] | 10.3
42 | TAAGGACTAATATTTGAACACACATATAATATATAC [CACACA_site9325] | 9.74
43 | CATATATATATATATATATATATATTTATTTATTTA [TGCATGCA_negctrl_site165] | 9.51
44 | GTCATCAAGTATTAAGTGCATTAAAAATAAAATATA | 9.47

Row | Sequence | gcPBM binding intensity (ln)
45 | AGTTTAATATAAAATACACACTACTCTTATAAATAT [CACACA_site6803] | 9.65
46 | GAAATAATAAATTAAAAATCGTTTATAACATTTAAC [CACACA_negctrl_site425] | 9.57
47 | ATTTTCTTTCTATGCACACGCACGTATTTGCACCCA [CACACA_site3350] | 9.95
48 | CTTTTTTTTTGATGTTGTACATATATATTATATAAT [XGTACX_site1321] | 9.76
49 | GTATATAATATTAGTGCACACACAAAAATGTACTAA [CACACA_site8112] | 10
50 | TGGGAGCACAGACACACACACACACCCATATATATA [CACACA_site335] | 10.5
51 | TACAAAATAAAAATAATTCTTTCAAAAAATAATAAA [XGTACX_negctrl_site368] | 9.44
52 | TGCACATTTATGTAACGTACAAAATATAATATGTTA [XGTACX_site8255] | 9.5
53 | TCCTTATATTGGCACACACACACAATAAAATGAAAA [CACACA_site4715] | 10.7
54 | GGTTGCTTCAGTGAATGTACATAGTGGTAAACAAGC [XGTACX_site166] | 9.59
55 | GTATAAAAGTAATGTAGTACTTATATATTTTTATTT [XGTACX_site8975] | 9.56
56 | AGTAATATAATATAAGCACACGTGTATTTATTTAGT [CACACA_site4246] | 10.1
57 | TGCTATATTATTATCGCACACCGTTGATTCTAAATA [CACACA_site1207] | 9.72
58 | CATTTATTTATATACACACACACAAAAAAAAAAAAA [CACACA_site7279] | 10
59 | ATAAGTGTATAAAAATGTACGTGTATAAAAATATGT [XGTACX_site8235] | 9.89
60 | AAAAAAAAAAGAAACACACACATATATATATATAAT [CACACA_site5052] | 10.1
61 | TATATATATTCTTTAAAACACACGTAAAGAAGAATT [CACACA_site2718] | 9.63
62 | ATATATGTTATTATTTGTACACACACATATATATCC [XGTACX_site7657] | 10.1
63 | GAAAATTTATTTTTGGTGCATGTATTTATTTATTTT | 9.71
64 | ATTTCTAATATTTTTGCACACTAAACAATAAATTTC [CACACA_site3943] | 9.86
65 | TTTTTAATTTAAAAAAATAATATTTTATATTCCGAA [CACACA_negctrl_site108] | 8.86
66 | TATTTTTTATTTTTTTGTACATATTTGATAATTAAT [XGTACX_site316] | 9.62

Row | Sequence | gcPBM binding intensity (ln)
67 | GTAAGCATCAAAAAAGGTACAGAAATTATAAATAAA [XGTACX_site6708] | 9.57
68 | AAATATTTATATATATGTACACATATAATATTTTTA [XGTACX_site2338] | 9.52
69 | GAATATAAAAGGAACGGTACAGAAAAAAAAAAAAAA [XGTACX_site3917] | 9.48
70 | TTTATTTTTTATATATCACTTAAAAAAAAAAAAAAA [CACACA_negctrl_site249] | 8.93
71 | ATTTATATTTTATATACACACATGAACTTATATGGA [CACACA_site3167] | 9.74
72 | CTTTTTTTTTTATGCACACACAATTATACATTCCTT [CACACA_site3877] | 10.6
73 | AATATAGTCTCACATACACACATATATATTTATATA [CACACA_site2503] | 9.86
74 | ATGTAATATATTATATGTACATATTTTTATGTAGAT [XGTACX_site5945] | 9.76
75 | AAAACAAATAAGTAAACACACATATATAATATATAT [CACACA_site2586] | 10
76 | AAAAAAAAAAAAACTAGTACATATATATAGTATGAA [XGTACX_site6279] | 9.71
77 | ATTATATTTGAATGGTGTACTATAATAATGTAGTTT [XGTACX_site8069] | 9.67
78 | ACATATATATATATATAAATATATATGTATGTATTT [XGTACX_negctrl_site237] | 9.55
79 | GAATAAATTAAATTCACACATAAAATACAAAATACA [CACACA_site5495] | 9.89
80 | CATACACGCGGACACACACACACACGCATATATAAC [CACACA_site6427] | 11.2
81 | CTTATATTAATTATTACACACATATATATAAATGCA [CACACA_site770] | 9.68
82 | AAAGAAAATAGGTGTACACATAATAAATACAGCTAT [CACACA_site5917] | 10.4
83 | ACAAGTGTATATGTTATATATATATATATATATATA [CACACA_negctrl_site1686] | 9.65
84 | TACGTATTCATGTATAGTACTCTTTTTTTTAATAAA [XGTACX_site3299] | 9.33
85 | TTATTACGAACTCTGCAACATATATAAATAAATAAA [CACACA_negctrl_site44] | 9.34
86 | AAAATAATATTTAATACACACATAATTACAATATAA [CACACA_site6510] | 9.87
87 | AAAGATAAAATATATACACACACATAAATACGTACA [CACACA_site8275] | 10.8
88 | TACCTTTTTTATGTTGCACACTGGGATGTTTTCTAA [CACACA_site1653] | 9.95
